# In all, about 310,000 compounds went through this assay and about 14,000 (4.5%) showed an effect of 50% or more. Effects have a minus sign here. This is one part of the list.
# Target: human ether-à-go-go-related gene (hERG) potassium channel (human, UniProt Q12809)
# Assay: primary screen, population patch clamp on CHO cells stably expressing hERG
# 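Note: peak tail current of the secondary pulse compared with the same well before compound.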
# Sequence of human ether-à-go-go-related gene (hERG) potassium channel (Q12809 whole entry, looked up): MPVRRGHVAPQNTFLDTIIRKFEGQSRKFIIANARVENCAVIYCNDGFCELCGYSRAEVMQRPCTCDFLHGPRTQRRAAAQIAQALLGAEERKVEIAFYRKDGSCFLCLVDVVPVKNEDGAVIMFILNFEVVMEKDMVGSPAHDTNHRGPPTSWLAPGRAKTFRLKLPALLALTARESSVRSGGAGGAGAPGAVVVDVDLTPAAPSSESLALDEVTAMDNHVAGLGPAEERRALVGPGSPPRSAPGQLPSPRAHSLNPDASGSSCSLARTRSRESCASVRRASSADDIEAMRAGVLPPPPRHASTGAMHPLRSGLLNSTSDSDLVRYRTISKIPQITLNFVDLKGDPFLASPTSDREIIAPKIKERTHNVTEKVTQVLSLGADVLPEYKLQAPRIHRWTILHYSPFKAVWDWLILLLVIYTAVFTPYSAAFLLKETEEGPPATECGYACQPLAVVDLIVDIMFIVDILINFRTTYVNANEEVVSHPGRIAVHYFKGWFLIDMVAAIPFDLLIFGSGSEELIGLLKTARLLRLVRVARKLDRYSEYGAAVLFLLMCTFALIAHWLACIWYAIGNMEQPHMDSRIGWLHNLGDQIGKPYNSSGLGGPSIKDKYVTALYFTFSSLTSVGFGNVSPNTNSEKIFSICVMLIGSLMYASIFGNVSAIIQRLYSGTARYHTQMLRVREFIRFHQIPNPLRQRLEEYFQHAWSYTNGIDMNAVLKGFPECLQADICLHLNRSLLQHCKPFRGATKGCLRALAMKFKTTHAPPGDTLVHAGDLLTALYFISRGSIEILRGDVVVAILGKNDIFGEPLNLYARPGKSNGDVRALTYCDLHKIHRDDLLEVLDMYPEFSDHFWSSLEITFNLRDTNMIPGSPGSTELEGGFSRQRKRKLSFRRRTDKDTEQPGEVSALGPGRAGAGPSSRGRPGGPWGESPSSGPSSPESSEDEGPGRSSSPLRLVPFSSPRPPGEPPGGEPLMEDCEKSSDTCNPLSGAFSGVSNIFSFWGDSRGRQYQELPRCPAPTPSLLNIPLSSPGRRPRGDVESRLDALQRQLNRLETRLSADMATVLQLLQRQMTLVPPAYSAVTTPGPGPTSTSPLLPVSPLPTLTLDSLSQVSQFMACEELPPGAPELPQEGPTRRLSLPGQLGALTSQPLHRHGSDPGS
row,Structure (SMILES),"hERG current change (%, negative = inhibition) at 10uM"
1,CCCC1CC(c2csc(N)n2)CCO1 (stereo not shown),16.1%
2,C=CCN1C(=O)S/C(=C/c2ccsc2)C1=O,7.94%
3,O=C(Nc1ccc(N2CCCC2)cc1)c1ccc([N+](=O)[O-])cc1Cl,11.6%
4,C=CCN(c1ccc(Cl)cc1)S(=O)(=O)c1cccc(C(=O)O)c1,1.92%
5,CCN(CC(=O)Nc1c(F)cccc1F)C(=O)c1cc(C)nc2ccccc12,9.3%
6,CCCc1nnc(SCC(=O)N2C(C)CCCC2C)n1CCCOC (stereo not shown),11%
7,COC(=O)c1ccc(S(=O)(=O)NCc2ccco2)n1C,13.6%
8,COc1cccc(-c2nn(Cc3ccccc3)cc2CO)c1,8.47%
9,O=C(NNc1nc2ccc(Cl)cc2s1)c1cc(-c2cccs2)nc2ccccc12,-1.95%
10,CCOC(=O)c1[nH]cnc1C(=O)Nc1ccccc1,8.84%
11,O=C(COc1ccccc1)NCC(=O)N/N=C/c1ccc(Br)cc1,-14.6%
12,COc1ccc(Nc2ncc(C#N)c(N)n2)c(OC)c1,-3.07%
13,O.O=c1ccc2cc(O[C@@H]3O[C@@H](CO)[C@H](O)[C@@H](O)[C@@H]3O)c(O)cc2o1,31%
14,COc1ccc(S(=O)(=O)N2CCCCCC2)cc1C(=O)N(C)Cc1ccc(Cl)cc1Cl,-23.1%
15,COc1cc(/C=C/C(=O)O)cc(Br)c1O,23.4%
16,CCN(CCCCN1C(=O)c2ccccc2C1=O)c1ccc2c(c1)C(=O)N(C)C2=O,-14.6%
17,Cc1cc(Cl)ccc1NC(=S)NCc1ccco1,8.32%
18,COc1ccc(/C(O)=C2/C(=O)C(=O)N(CCCN(C)C)C2c2cccc(Cl)c2)cc1OC (stereo not shown),12.9%
19,C[C@H](NS(=O)(=O)c1ccc2c(c1)OCCCO2)C(=O)N1CCN(c2ccc(F)cc2)CC1,-34.8%
20,Cc1cccc(NS(=O)(=O)c2ccc(C)c(C(=O)OCC(=O)Nc3cc(C)on3)c2)c1,10.6%
21,CC(=O)c1cc(C(C)=O)c(C)[n+](C)c1C.[O-][Cl+3]([O-])([O-])[O-],18%
22,Cn1c(=O)c(C(=O)CCl)c(N)n(CC2CC2)c1=O,0.697%

row,Structure (SMILES),"hERG current change (%, negative = inhibition) at 10uM"
1,O=C(Nc1scc(-c2ccc(F)cc2)c1C(=O)O)c1ccco1,0.298%
2,Cc1ccc(OCCCCN2CCCC(C)C2)c([N+](=O)[O-])c1.O=C(O)C(=O)O (stereo not shown),-69%
3,COc1ccccc1-c1nnc(SCC(=O)NC2CCS(=O)(=O)C2)n1CCc1ccccc1 (stereo not shown),8.05%
4,Cn1nnnc1SCC(=O)Nc1ccccc1C(=O)NCc1ccccc1,7.79%
5,CCOC(=O)CN(C(=O)COc1nc(C)cc(C)c1C#N)c1ccc(Cl)cc1,-34.3%
6,COC(=O)C1=C(C)Nc2c(c(=O)n(C)c(=O)n2C)C1c1ccc(C)cc1 (stereo not shown),20.1%
7,COc1ccc(CCN2C(=O)CC(Nc3ccc(N4CCOCC4)cc3)C2=O)cc1OC (stereo not shown),2.07%
8,CCNCCOC(c1ccccc1)c1ccccc1.Cl,-31.8%
9,COC(=O)c1ccc(Cl)c(NC(=O)Cc2ccccc2[N+](=O)[O-])c1,12.8%
10,COc1ccc2[nH]c3c(c2c1)CCN1C(=O)N([C@@H](C)C(=O)NCc2ccc(F)cc2)C(=O)[C@]31C,12.7%
11,CC(C)Oc1cccc(C(=O)C2CCCN(C3CCOCC3)C2)c1 (stereo not shown),-10.5%
12,CCC(CC)C(=O)c1c[nH]c(C(=O)N2CCN(c3ccccc3F)CC2)c1,25.2%
13,N/C(=N\OC(=O)CCC1CCCC1)c1cccc([N+](=O)[O-])c1,-70.4%
14,COc1ccccc1C(=O)Nc1nnc(SCC(=O)NCC2CCCO2)s1 (stereo not shown),12.9%
15,N#Cc1ccc(CSc2nnc(-c3ccccn3)n2-c2ccccc2)cc1,-42.1%
16,O=C(NCCCn1ccnc1)c1cn(Cc2ccc(F)cc2)nn1,-9.7%
17,Cc1cccc(N2CCN(C(=O)c3cn(C)c(=O)c4c3c3ccccc3n4C)CC2)c1C,5.98%
18,Cc1ccc(Oc2ccc(OCC(=O)NC(CC(C)C)C(=O)O)cc2)cc1 (stereo not shown),6.77%
19,COc1ccc(C(=O)NC2CCCCC2)cc1OC1CCN(C(C)C)CC1,-69.7%
20,CCc1ccccc1N1CC23C=CC(O2)C(C(=O)OCC(C)C)C3C1=O (stereo not shown),-12.9%
21,COc1ccc(C)cc1NC(=O)C1CC(=O)N(CCc2ccccc2)C1 (stereo not shown),13%
22,N#Cc1c(/N=C/c2cccnc2)sc2c1CCCC2,-15%

row,Structure (SMILES),"hERG current change (%, negative = inhibition) at 10uM"
1,O=C(Nc1cccc2ncccc12)c1cccc(Br)c1,-7.12%
2,Cc1ccc2occ(C3NC(C(=O)O)CS3)c(=O)c2c1 (stereo not shown),13.3%
3,O=C(Nc1ncc([N+](=O)[O-])s1)C1CCN(S(=O)(=O)c2cnc[nH]2)CC1,14.4%
4,CC(C)(Cc1ccccc1)NC(=O)C(=O)c1cn(CC(=O)N2CCOCC2)c2ccccc12,-7%
5,CSc1ccc(/C=C2\CCn3c2nc2cc(C(=O)O)ccc2c3=O)cc1,20.4%
6,[O-]/[N+](=C\c1ccccc1)c1ccc(Br)cc1,-0.595%
7,Cc1ccc(C(=O)Nc2cccc(C(F)(F)F)c2)cc1Nc1cnccn1,-38.4%
8,COc1cc(-c2nc3ccccn3c2/N=C/c2ccc(F)cc2)ccc1O,1.09%
9,CCOC(=O)c1ccc(CNC(=O)c2cc(C(C)(C)C)oc2C)o1,-10.2%
10,O=C(NC1CC1)C1=C[C@@H](c2ccc3c(c2)OCO3)C[C@@H](OCc2ccc(CO)cc2)O1,-3.36%
11,COCc1cc(C)n(CC(=O)Nc2ccc(N3CCOCC3)c(Cl)c2)c(=O)c1C#N,-4.71%
12,CCn1c(SC(C)C(=O)NC2CCCC2)nc2cc(S(N)(=O)=O)ccc21 (stereo not shown),2.78%
13,CC1=C(C(N)=O)C(c2ccc(Cl)c(Cl)c2)n2ncnc2N1 (stereo not shown),18.8%
14,O=C(Cn1c(=O)c2c(ncn2Cc2ccccc2)n(Cc2ccccc2)c1=O)N1CCCC1,-33.4%
15,Nc1nc(Nc2ccc(Cl)cc2)nc(NCc2ccco2)c1[N+](=O)[O-],-19.3%
16,CCOc1ccc(CN(C)C(=O)Cc2c[nH]c3ccccc23)cc1,12%
17,Cc1cc(Nc2ccc(Cl)cc2)n(-c2ccccc2)n1,2.76%
18,O=C(c1ccccc1[N+](=O)[O-])N(CCc1ccccc1)Cc1ccccc1,3.89%
19,O=C(COC(=O)c1ccc([N+](=O)[O-])cc1Cl)NCc1ccco1,-3.16%
20,COc1ccc(C(CC(=O)O)NC(=O)COc2ccccc2)cc1OC (stereo not shown),16.7%
21,c1ccc2oc(NC3=NCN(CC4CCCO4)CN3)nc2c1 (stereo not shown),0.528%
22,C=CCc1cc(C=O)cc(OC)c1OCc1ccc(C(=O)O)cc1,4.12%

row,Structure (SMILES),"hERG current change (%, negative = inhibition) at 10uM"
1,Cn1cccc1C(=O)c1cccc([N+](=O)[O-])c1,-52.9%
2,COc1ccc(CNC(=O)CN(c2ccc(OC)c(Cl)c2)S(=O)(=O)c2ccc(C)cc2)cc1,10.4%
3,CCOC(=O)N1CCN(Cc2nc3cc(NC(=O)CC(C)C)ccc3n2C)CC1,9.03%
4,CC(C)c1ccc(OCC(=O)NC2CCCC2)cc1,10.6%
5,O=C(CSc1n[nH]c(-c2ccncc2)n1)Nc1ccccc1C(F)(F)F,13.4%
6,Cc1ncoc1C(=O)NCc1ccccc1Cl,-1.99%
7,Cc1sc2nc(CN3CCOCC3)nc(NS(=O)(=O)c3cc(Cl)ccc3Cl)c2c1C,-9.13%
8,CCn1c(COc2ccc(C(C)C)cc2)nnc1SCC(=O)Nc1nccs1,-7.75%
9,Cc1ccc2c(C)c(C(=O)N(Cc3ccccc3)C3CCS(=O)(=O)C3)oc2c1 (stereo not shown),5.01%
10,S=C(NCc1ccco1)Nc1ccc(Cl)cn1,-4.57%
11,Cc1nnc(SCC(=O)Nc2cc(S(=O)(=O)N3CCCC3)ccc2Cl)n1C1CC1,-26.6%
12,CC(C)(C)c1ccc(C(=O)NC2CCN(Cc3ccccc3)CC2)cc1,-65.3%
13,Cc1ccccc1-c1nc(CN2CCC(C(=O)NCCN3CCOCC3)CC2)c(C)o1,-11.4%
14,Cc1cccc(-n2c(CNC(=O)c3ccc(S(=O)(=O)N(C)C)cc3)nnc2SCC(=O)Nc2ccc(F)cc2)c1,-17.4%
15,Cc1ccc(N(C(C)C(=O)N2CCOCC2)S(C)(=O)=O)cc1C (stereo not shown),-2.09%
16,COc1cccc(-c2nc(CS(=O)(=O)CC(=O)Nc3c(C)cccc3C)c(C)o2)c1,13.8%
17,CCN1C(=O)[C@H]2[C@@H](c3ccc(-c4ccc(OC)cc4)cc3)N[C@@](Cc3ccccc3)(C(=O)OC)[C@H]2C1=O.O=C(O)C(F)(F)F,3.09%
18,O=C(NCCC1=CCCCC1)C1CCN(S(=O)(=O)c2cccc(C(F)(F)F)c2)CC1,-11.3%
19,O=C(CSc1ccc2c(c1)OCCO2)NCCc1ccc(Cl)cc1Cl,-8.94%
